# Over roughly 33,000 sequences, “E-score (-0.5 to 0.5)” has its median near -0.012; the highest 2% begin near 0.29. This is one part of the list.
# Molecular target: T1, Ybr033w (UniProt P38073)
# T1 sequence: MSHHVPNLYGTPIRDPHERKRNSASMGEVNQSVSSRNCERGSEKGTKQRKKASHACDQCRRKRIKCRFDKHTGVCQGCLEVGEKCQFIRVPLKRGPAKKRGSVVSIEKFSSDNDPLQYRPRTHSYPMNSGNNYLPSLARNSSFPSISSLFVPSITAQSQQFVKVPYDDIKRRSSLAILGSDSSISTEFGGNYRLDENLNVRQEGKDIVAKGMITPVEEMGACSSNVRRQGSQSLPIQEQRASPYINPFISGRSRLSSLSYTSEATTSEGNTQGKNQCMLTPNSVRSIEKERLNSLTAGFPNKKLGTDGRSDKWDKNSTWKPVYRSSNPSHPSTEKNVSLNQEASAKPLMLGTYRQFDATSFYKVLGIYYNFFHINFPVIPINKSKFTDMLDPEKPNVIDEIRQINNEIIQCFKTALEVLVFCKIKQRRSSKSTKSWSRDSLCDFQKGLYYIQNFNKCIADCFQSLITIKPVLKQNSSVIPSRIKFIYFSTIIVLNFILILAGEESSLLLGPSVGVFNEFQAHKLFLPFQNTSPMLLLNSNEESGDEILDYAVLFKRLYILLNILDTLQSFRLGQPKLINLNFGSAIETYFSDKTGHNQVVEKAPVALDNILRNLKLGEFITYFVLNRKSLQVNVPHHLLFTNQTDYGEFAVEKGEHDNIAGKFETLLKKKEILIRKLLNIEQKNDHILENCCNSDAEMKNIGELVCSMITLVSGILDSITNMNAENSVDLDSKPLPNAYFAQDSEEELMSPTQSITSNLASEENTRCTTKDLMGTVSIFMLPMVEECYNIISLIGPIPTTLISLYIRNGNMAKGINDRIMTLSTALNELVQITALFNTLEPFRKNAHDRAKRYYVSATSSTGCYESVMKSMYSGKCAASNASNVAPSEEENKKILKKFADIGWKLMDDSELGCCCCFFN
# Assay: PBM E-score (8-mer binding enrichment) (E-score (-0.5 to 0.5)); higher = stronger / more preferred TF binding; most listed sequences are background and not binding sites
# Conditions: protein concentration: 200 nM; construct: GST-full length
# Procedure, shortened: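 Yeast transcription factors carrying a GST tag, as full-length proteins or DNA-binding domains, were produced by PURExpress in vitro transcription/translation. About 100-200 nM protein was applied to universal all-10-mer Agilent arrays, double-stranded by primer extension on fresh or once-stripped slides. Bound protein was detected with fluorescent anti-GST, and scans were normalised with masliner. The Universal PBM Analysis Suite gave each ungapped eight-base word, pooled with its reverse complement, an E-score, a modified Wilcoxon-Mann-Whitney statistic.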
row,Sequence,PBM E-score
1,CATGCGCG,-0.14
2,ATGCTTGG,-0.0632
3,CTACGAGA,0.0385
4,AGAAGAGA,0.0852
5,ATTTTTCA,0.212
6,AAGAAGTC,-0.061
7,CCTCCCCG,-0.171
8,AGGAATTA,0.223
9,CGATCAAA,0.12
10,TAACCGCA,0.144
11,ACCATGAC,-0.0754
12,AAGTCTAG,-0.142
13,ATTTGACC,0.0692
14,ACACAGTA,0.104
15,AAGACAAC,0.144
16,GCACCTGA,0.0618
17,GCAAGGAC,-0.155
18,GCGGAAAA,0.396
19,CTGATATC,0.0398
20,AATCTAAA,0.161
21,AGATGAGA,-0.0673
22,ACCCTGAT,-0.109

row,Sequence,PBM E-score
1,ACAGAACT,0.127
2,AACGATGG,-0.0425
3,CAGTAGTC,-0.192
4,GTCGAACA,0.178
5,ACTTTGAA,0.0876
6,CACCGCTC,-0.162
7,ATAAGGGC,-0.114
8,ATCACCAC,0.12
9,AGGCAAAC,0.0331
10,ACTTAGCG,0.123
11,GTGCACGA,-0.151
12,CCTTCTCG,-0.244
13,GGAGTGAC,0.0518
14,CAGAGAGG,-0.368
15,ATGATATG,0.208
16,CATCCTTA,-0.0271
17,AGAAGGGG,-0.339
18,CCGCCTCA,-0.232
19,CCTGCGCG,-0.0311
20,CTCTTGGA,0.0916
21,CCAGGGAG,-0.21
22,ATTGACTA,0.0245

row,Sequence,PBM E-score
1,GGCCGTCA,-0.0923
2,GAAATCTC,-0.0338
3,CCACCATA,-0.0728
4,ACGCTCTG,-0.151
5,ATTTGATG,0.155
6,GTCTCCCA,-0.271
7,CGAAGATA,0.133
8,ACGTTAAC,0.0452
9,ACATTCAC,0.191
10,CTTCGTGA,-0.0962
11,ATGGGTGC,-0.139
12,AGGAGTCC,-0.241
13,AGGATCTC,-0.0981
14,AAACACTC,0.2
15,AGCACACA,-0.0313
16,CAACCGAC,0.107
17,CTGCACAA,0.0156
18,GACTGTTA,0.0926
19,TCTGCACA,-0.0174
20,AAGCAGGC,-0.157
21,CTGTTCCA,0.0353
22,TCGGCACA,-0.0693

row,Sequence,PBM E-score
1,GACGGCCC,-0.336
2,ACCCGGCT,-0.174
3,ATCATCCG,0.155
4,CCGAGTTA,-0.0736
5,AAGGGTAA,0.0407
6,CCGAACGC,-0.0124
7,ACACGAGG,-0.0693
8,CCAGAGGA,0.00251
9,AAATCAGG,0.0403
10,GATGGTCA,0.00756
11,TGCAAGAA,0.148
12,CCTCCGAG,-0.0756
13,GGATCGGA,-0.0621
14,GAATGGAA,0.0458
15,CTGAACAA,0.119
16,CTTAGATC,0.0104
17,CGAAATCG,-0.0537
18,AGAATTAT,0.201
19,ACAGCTGA,-0.0675
20,ACGTCGGA,-0.0678

# Source: the supplement of paper PMC3334620
